# Source: the supplement of paper PMC10037445
# Over roughly 2,900 compounds, “IRF Lucia reporter activity, fold change vs agonist alone” has its median near 0.9; the highest 2% begin near 2.8. The list shows a part of the results.
# Experiments:
# [1] = test system: RAW-Dual; assay: IRF Lucia reporter activity, fold change vs agonist alone; cytotoxicity flag (confluency mask): not cytotoxic; higher = enhanced IRF activity
# Summary of the method: (§1)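 Cytotoxic wells were those whose IncuCyte confluency was below 70% of agonist controls in both mask sets. The cells were RAW-Dual macrophages at 50,000 cells/well in DMEM on 384-well plates, dosed with 50 nL of library stock by pin tool, stimulated with a PRR agonist 1 h later, and kept at 37 °C, 5% CO2 for 20 hours. IRF and NF-κB reporter activity, as fold change over agonist-alone wells, came from supernatant read by QuantiLuc luminescence and QuantiBlue absorbance, respectively.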
# [2] = test system: RAW-Dual; assay: IRF Lucia reporter activity, fold change vs agonist alone; higher = enhanced IRF activity; conditions: agonist: MPLA (TLR4) […]
# Summary of the method: as §1
# [3] = test system: RAW-Dual; assay: IRF Lucia reporter activity, fold change vs agonist alone; cytotoxicity flag (confluency mask): cytotoxic (confluency <70% of control); higher = enhanced IRF activity
# Summary of the method: as §1
# [4] = agonist: 3'3'-cGAMP (STING) 10 ug/mL
# [5] = library stock concentration (final ~1000-fold dilution): 10 mM, cytotoxicity flag (confluency mask): not cytotoxic
# [6] = library stock concentration (final ~1000-fold dilution): 10 mM water, cytotoxicity flag (confluency mask): not cytotoxic
smiles,measurement,setting,value
CC#CC1(O)CCC2C3CCC4=CC(=O)CCC4=C3C(c3ccc(N(C)C)cc3)CC21C (stereo not given) (library stock concentration (final ~1000-fold dilution): 10 mM),IRF Lucia reporter activity,[1]; [4],1.29
same,IRF Lucia reporter activity,[1]; agonist: LPS (TLR4) 0.1 ug/mL,0.908
CC#CC1(O)CCC2C3CCC4=CC(=O)CCC4=C3C(c3ccc(N(C)C)cc3)CC21C (stereo not given),IRF Lucia reporter activity,[2]; [5],0.886
Oc1c(F)cc(-c2cnccc2-c2ccc(N3CCOCC3)cc2)cc1F (library stock concentration (final ~1000-fold dilution): 10 mM),IRF Lucia reporter activity,[1]; [4],0.603
same,IRF Lucia reporter activity,[1]; agonist: LPS (TLR4) 0.1 ug/mL,0.991
CCCCCCCCCCCCc1ccc(S(=O)(=O)Nc2nncs2)cc1,IRF Lucia reporter activity,"[2]; library stock concentration (final ~1000-fold dilution): 10 mM, cytotoxicity flag (confluency mask): cytotoxic (confluency <70% of control)",0.649
CCCCCCCCCCCCc1ccc(S(=O)(=O)Nc2nncs2)cc1 (library stock concentration (final ~1000-fold dilution): 10 mM),IRF Lucia reporter activity,[3]; [4],0.835
same,IRF Lucia reporter activity,[3]; agonist: LPS (TLR4) 0.1 ug/mL,0.588
CN1CCN(c2c(F)cc3c(=O)c(C(=O)O)cn4c3c2OCN4C)CC1,IRF Lucia reporter activity,"[2]; library stock concentration (final ~1000-fold dilution): 2 mM, cytotoxicity flag (confluency mask): not cytotoxic",1.25
CN1CCN(c2c(F)cc3c(=O)c(C(=O)O)cn4c3c2OCN4C)CC1 (library stock concentration (final ~1000-fold dilution): 2 mM),IRF Lucia reporter activity,[1]; [4],0.896
same,IRF Lucia reporter activity,[1]; agonist: LPS (TLR4) 0.1 ug/mL,0.928
COc1ccccc1OCC(O)CN1CCN(CC(=O)Nc2c(C)cccc2C)CC1.Cl.Cl (stereo not given) (library stock concentration (final ~1000-fold dilution): 10 mM),IRF Lucia reporter activity,[1]; [4],1.02
same,IRF Lucia reporter activity,[1]; agonist: LPS (TLR4) 0.1 ug/mL,1.16
COc1ccccc1OCC(O)CN1CCN(CC(=O)Nc2c(C)cccc2C)CC1.Cl.Cl (stereo not given),IRF Lucia reporter activity,[2]; [5],1.02
COc1cc(C(C)=O)ccc1O,IRF Lucia reporter activity,[2]; [5],0.839
COc1cc(C(C)=O)ccc1O (library stock concentration (final ~1000-fold dilution): 10 mM),IRF Lucia reporter activity,[1]; [4],0.969
same,IRF Lucia reporter activity,[1]; agonist: LPS (TLR4) 0.1 ug/mL,0.825
CC/C(=C(/c1ccc(/C=C/C(=O)O)cc1)c1ccc2[nH]ncc2c1)c1ccc(F)cc1Cl (library stock concentration (final ~1000-fold dilution): 10 mM),IRF Lucia reporter activity,[1]; [4],0.843
same,IRF Lucia reporter activity,[1]; agonist: LPS (TLR4) 0.1 ug/mL,1.14
CCOC(=O)C(N)Cc1ccc(-c2cc(OC(c3ccc(Cl)cc3-n3ccc(C)n3)C(F)(F)F)nc(N)n2)cc1.O=C(O)CNC(=O)c1ccccc1 (stereo not given) (library stock concentration (final ~1000-fold dilution): 10 mM),IRF Lucia reporter activity,[1]; [4],1.09
same,IRF Lucia reporter activity,[1]; agonist: LPS (TLR4) 0.1 ug/mL,0.731
CCOC(=O)C(N)Cc1ccc(-c2cc(OC(c3ccc(Cl)cc3-n3ccc(C)n3)C(F)(F)F)nc(N)n2)cc1.O=C(O)CNC(=O)c1ccccc1 (stereo not given),IRF Lucia reporter activity,[2]; [5],1.11
C[N+](C)(C)CCOC(=O)CCC(=O)OCC[N+](C)(C)C (library stock concentration (final ~1000-fold dilution): 10 mM water),IRF Lucia reporter activity,[1]; [4],1.16
same,IRF Lucia reporter activity,[1]; agonist: LPS (TLR4) 0.1 ug/mL,0.902
C[N+](C)(C)CCOC(=O)CCC(=O)OCC[N+](C)(C)C,IRF Lucia reporter activity,[2]; [6],1.35
CC(Cc1ccc(O)c(O)c1)(NN)C(=O)O (stereo not given),IRF Lucia reporter activity,[2]; [5],0.984
CC(Cc1ccc(O)c(O)c1)(NN)C(=O)O (stereo not given) (library stock concentration (final ~1000-fold dilution): 10 mM),IRF Lucia reporter activity,[1]; [4],0.921
same,IRF Lucia reporter activity,[1]; agonist: LPS (TLR4) 0.1 ug/mL,1.15
Cc1cc(O)c(-c2ccc(C(C)CN)cc2)c2c1[nH]c(=O)c1sccc12.Cl (stereo not given) (library stock concentration (final ~1000-fold dilution): 10 mM),IRF Lucia reporter activity,[3]; [4],0.0139
same,IRF Lucia reporter activity,[3]; agonist: LPS (TLR4) 0.1 ug/mL,0.0203
CCCCCCCCCCCCCCCCOP(=O)([O-])OCC[N+](C)(C)C (library stock concentration (final ~1000-fold dilution): 10 mM water),IRF Lucia reporter activity,[1]; [4],0.694
same,IRF Lucia reporter activity,[1]; agonist: LPS (TLR4) 0.1 ug/mL,0.984
CCCCCCCCCCCCCCCCOP(=O)([O-])OCC[N+](C)(C)C,IRF Lucia reporter activity,[2]; [6],1.32
Nc1cc(F)ccc1NC(=O)/C=C/c1cnn(C/C=C/c2ccccc2)c1,IRF Lucia reporter activity,[2]; [5],0.106
Nc1cc(F)ccc1NC(=O)/C=C/c1cnn(C/C=C/c2ccccc2)c1 (library stock concentration (final ~1000-fold dilution): 10 mM),IRF Lucia reporter activity,[1]; [4],0.0186
same,IRF Lucia reporter activity,[1]; agonist: LPS (TLR4) 0.1 ug/mL,0.368
NC1=NC(c2cccc(-c3cncnc3)c2)(c2ccnc(C(F)F)c2)c2cccc(F)c21 (stereo not given) (library stock concentration (final ~1000-fold dilution): 10 mM),IRF Lucia reporter activity,[1]; [4],0.483
same,IRF Lucia reporter activity,[1]; agonist: LPS (TLR4) 0.1 ug/mL,0.548
O=C(Nc1nccs1)C(c1cc(F)ccc1O)N1Cc2ccccc2C1=O (stereo not given) (library stock concentration (final ~1000-fold dilution): 10 mM),IRF Lucia reporter activity,[1]; [4],1.39
same,IRF Lucia reporter activity,[1]; agonist: LPS (TLR4) 0.1 ug/mL,1.25
CN(C)Cc1ccc(S(=O)(=O)n2ccc(/C=C/C(=O)NO)c2)cc1 (library stock concentration (final ~1000-fold dilution): 10 mM),IRF Lucia reporter activity,[1]; [4],0.974
same,IRF Lucia reporter activity,[1]; agonist: LPS (TLR4) 0.1 ug/mL,0.374
CN(C)Cc1ccc(S(=O)(=O)n2ccc(/C=C/C(=O)NO)c2)cc1,IRF Lucia reporter activity,[2]; [5],1.15
O=C(Cn1nnc(-c2ccncc2)c1-c1ccccc1)Nc1ccc(-c2ccccc2)cn1 (library stock concentration (final ~1000-fold dilution): 10 mM),IRF Lucia reporter activity,[1]; [4],0.859
same,IRF Lucia reporter activity,[1]; agonist: LPS (TLR4) 0.1 ug/mL,0.699
